# Laboratory results: PubChem BioAssay AID1347417 (National Center for Advancing Translational Sciences (NCATS), 2020)
# The campaign covered roughly 120,000 compounds. About 5,300 (4.4%) were called active. The inconclusive results got no clear call from the source; some entries with a clear call stand among them for comparison. Calls follow the shape of the dose curve; as a rule, active = well fitted inhibition curve with a large enough effect; inconclusive = small, poorly fitted or top-dose-only effect; inactive = no such curve, though single readings can be large or run the other way. Potencies of inconclusive entries are doubtful fits and often do not repeat.
# Test: qHTS Primary assay for Inhibitors of Plasmodium falciparum Dd2 growth in vitro; also: nearly all actives have a fitted effect of over 65% in size;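 as to activity, negative = inhibition: plate controls were DMSO vehicle for no effect and reference drug for full effect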
# Settings: P. falciparum Dd2 growth, SYBR Green, 72 h; activity, negative = inhibition: at 28.9 µM (top of the series) unless noted; series mostly up to 28.9 µM
# Outline: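 Infected erythrocytes (Dd2, 0.3% parasitemia, 2.5% hematocrit final) are added to compound in RPMI-1640/Albumax II medium, grown 72 h at 37C in low oxygen, then lysed with saponin/Triton-X containing SYBR Green and read by fluorescence.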
# Potency is read from the fitted curve at half-maximal effect; tags tell the direction and shape of the fitted curve.
SMILES,Potency,"activity, negative = inhibition"
Cc1ccc(-n2ncc(C(=O)NCCN3CCc4ccccc4C3)c2C2CCNCC2)cc1C,"inconclusive: 14.1 µM [inhibitor, single point]",
O=C(c1cccc(F)c1)N1C[C@@H](CO)[C@H](c2nc(C3CC3)no2)C1,inactive,
O=C(c1ccc2c(c1)OCO2)N1CCCC2(CC(c3ccccc3)=NO2)C1 (stereo unspecified),inactive,
COc1ccc(-n2c(=O)c3c4c(sc3n3c(SC(C)C)nnc23)COC(C(C)C)C4)cc1 (stereo unspecified),"inconclusive: 3.16 µM [inhibitor, single point]",
COC(=O)c1ccc2c(c1)nc1n2[C@@H](CNC(=O)c2ccc(F)cc2)COC1,"inconclusive: 11.2 µM [inhibitor, partial curve, poor fit]",
C=CCC1(CO)CCCN(C(=O)Cc2ccc(CO)cc2)C1 (stereo unspecified),inactive,
COc1cccc(N2CC3(COCC2=O)CN(c2ccc(C(F)(F)F)cn2)C3)n1,"inconclusive: 15.8 µM [inhibitor, partial curve, poor fit]",
COC(=O)c1ccc(NC(=O)N2CCn3nnc(CCC(=O)N4CCCC4)c3C2)cc1,inactive,
CN1CC(=O)N(C2CCNC2)Cc2c(NCc3ccccn3)ncnc21 (stereo unspecified),,inconclusive: -127% [inhibitor]
CN(C)CCNC(=O)c1ccc(Cn2c(=O)c3cccn3c3cccnc32)cc1,"inconclusive: 17.8 µM [inhibitor, single point]",
O=C1CCCCC(Cc2ccccc2)(C(=O)N2CCc3ccccc3C2)N1 (stereo unspecified),"inconclusive: 20 µM [inhibitor, single point]",
COc1ccc(C(=O)NC[C@H]2C[C@@H]3CCN2C[C@@H]3c2cc(-c3ccc(F)cc3)nn2C)cc1,inactive,
N#Cc1ccccc1CN1CCNc2nc(CNCc3ccc4c(c3)OCO4)n(Cc3ccccc3)c2C1=O,active: 6.31 µM,
COc1ccccc1OCCNC(=O)C(C)C1CCOCC1 (stereo unspecified),inactive,
Cc1cccc(NC(=O)c2oc3ccc(S(=O)(=O)N4CCC5(CC4)OCCO5)cc3c2C)c1C,"inconclusive: 11.2 µM [inhibitor, partial curve, poor fit]",
CN(C)C[C@@H]1CN(c2ncccn2)C[C@H]1NC(=O)c1ccccc1C(F)(F)F,inactive,
Cc1ccc(F)cc1-c1cn(C)c(=O)n2cc(COc3ccccc3)nc12,"inconclusive: 5.62 µM [inhibitor, single point]",
CC(=O)c1ccc(N2CCN(c3ncnc4c3cnn4C)CC2)cc1,inactive,
COc1ccc(C(=O)N2CCC(N3C[C@H](O)C[C@H]3C(=O)NC3CCCCC3)CC2)c(OC)c1,"inconclusive: 17.8 µM [inhibitor, single point]",
CS(=O)(=O)c1ccc(OCC2(CNCc3ccc(Cl)cc3)C[C@@H](O)[C@@H](O)C2)cc1 (stereo partly specified),"inconclusive: 10 µM [inhibitor, partial curve]",
Cc1nc(N2CCC(C(=O)NC3CCCCCCC3)CC2)cc(C(F)(F)F)n1,"inconclusive: 3.98 µM [inhibitor, single point]",
CC(C)NC(=O)N1CCC(c2nc(CCOCC3CCOCC3)no2)C1 (stereo unspecified),"inconclusive: 2.51 µM [inhibitor, single point]",

SMILES,Potency,"activity, negative = inhibition"
CC1CCN(S(=O)(=O)c2ccc3c(c2)N(CC(=O)NCCCN2CCCC(C)C2)C(=O)CS3)CC1 (stereo unspecified),"inconclusive: 11.2 µM [inhibitor, partial curve, poor fit]",
COC[C@@H]1CN(C(=O)c2ccc3ncccc3c2)C[C@H]1c1ccccn1,inactive,
CC(=O)N1CC2(CCN(Cc3ccc(Cl)cc3)C2)Cc2ccccc21 (stereo unspecified),"inconclusive: 11.2 µM [inhibitor, single point]",
CCOC(=O)c1ccn(-c2nc(-c3cccc(OC)c3)cc(C(F)(F)F)n2)n1,"inconclusive: 12.6 µM [inhibitor, single point]",
COCC(=O)N[C@H]1C[C@@H](Cc2cc(-c3ccc(F)cc3)on2)C1(C)C,"inconclusive: 5.62 µM [inhibitor, single point]",
COc1cccc(NC(=O)N(Cc2c[nH]c3ccccc23)C2CCCCC2)c1,"inconclusive: 12.6 µM [inhibitor, partial curve, poor fit]",
COc1ccc(CN2CCC3(CC2)CC(O)CCO3)cc1C (stereo unspecified),"inconclusive: 5.01 µM [inhibitor, partial curve, poor fit]",
CC(C)c1ccc(NC(=O)CCn2c(=O)c3cccn3c3ccccc32)cc1,"inconclusive: 6.31 µM [inhibitor, partial curve]",
O=C(CCc1ccccc1)N1CCNc2cnc(Nc3ccc(-n4ccnc4)cc3)nc2C1,"inconclusive: 1.58 µM [inhibitor, full curve, poor fit]",
CCOc1ccc(CCNC(=O)c2ccc3c(c2)sc2nc(-c4ccc(F)cc4)cn23)cc1OCC,active: 5.62 µM,
COc1ccc(-c2nc(-c3ccccc3)c(-c3ccc(F)cc3)[nH]2)c(OC)c1C,active: 11.2 µM,
COCCc1noc(C2CNC2)n1,"inconclusive: 10 µM [inhibitor, single point]",
COCC(=O)N[C@@H]1CN(Cc2ccncc2)C[C@H]1CO,"inconclusive: 17.8 µM [inhibitor, single point]",
CN(Cc1cc(-c2ccccc2)on1)C(=O)c1cn(Cc2ccc(F)cc2)nn1,inactive,
CN1CC(=O)N(c2ccc(Cl)cc2)Cc2c1ncnc2N1CCCCC1,"inconclusive: 7.94 µM [inhibitor, partial curve, poor fit]",
Cn1c2c(c3ccccc31)CN(C(=O)Nc1cccc(Br)c1)CC2,"inconclusive: 1 µM [inhibitor, full curve]",
Cc1ccc(C2C=C(c3ccc(Cl)cc3)Nc3nc(NC(=O)c4ccco4)nn32)cc1 (stereo unspecified),active: 3.55 µM,
CCCN1C(=O)[C@@H]2[C@@H](CCN2C(=O)CSCC(=O)O)N(Cc2cccs2)C1=O,"inconclusive: 35.5 µM [inhibitor, single point]",
Cc1cccc(CNC(=O)C2CCN(S(=O)(=O)c3ccc4c(c3)CCCN4C(=O)C3CCC3)CC2)c1,"inconclusive: 7.94 µM [inhibitor, partial curve, poor fit]",
CN1CCC(Oc2nccnc2N2CCc3ccccc32)C1 (stereo unspecified),active: 2.82 µM,
Cc1cccc(CC(=O)N2CCC(Nc3cccn4ncnc34)CC2)c1,active: 11.2 µM,
Cn1nnnc1SCCCNCc1cc(Cl)ccc1OCc1ccccc1F,"inconclusive: 6.31 µM [inhibitor, partial curve]",

SMILES,Potency,"activity, negative = inhibition"
COc1ccc(-c2noc(CC3CCN(C(=O)c4cc(OC)cc(OC)c4)CC3)n2)cc1,"inconclusive: 17.8 µM [inhibitor, single point]",
COCCc1noc([C@@H]2CN(Cc3ccc(C)o3)C[C@H]2CO)n1,"inconclusive: 0.631 µM [inhibitor, full curve, poor fit]",
CNC(=O)[C@@H]1CN(S(=O)(=O)c2cnc[nH]2)C[C@H]1c1n[nH]c(C)n1,inactive,
COc1ccc(OC2CCN(C(C)=O)CC2)c(C(=O)N(C)Cc2ccccc2)c1,inactive,
Cc1nn(C)c(C)c1S(=O)(=O)N1CCC(c2ncc(C)n2C(C)C)C1 (stereo unspecified),"inconclusive: 8.91 µM [inhibitor, partial curve]",
COc1cccc(CC(=O)N2CCC(c3noc(CO)n3)C2)c1 (stereo unspecified),inactive,
COCc1cc(C[C@H]2CNCC[C@H]2CC(=O)N(C)Cc2ccccc2)no1,"inconclusive: 1.26 µM [inhibitor, partial curve, poor fit]",
CCOC(=O)c1cnc(N2CCN(c3ccc(C)cc3C)CC2)c2ccccc12,"inconclusive: 0.251 µM [inhibitor, partial curve, poor fit]",
Cc1nc(C)c(C(=O)N2CC(Oc3cccc(-c4nc(-c5ccccc5)no4)c3)C2)s1,"inconclusive: 1.26 µM [inhibitor, partial curve, poor fit]",
COc1ccc(CN2CCCC23Cc2ccccc2CNC3=O)cc1OC (stereo unspecified),"inconclusive: 20 µM [inhibitor, single point]",
COc1ccccc1NC(=O)CSc1oc(-c2ccc(F)cc2)nc1S(=O)(=O)c1ccc(Br)cc1,"inconclusive: 17.8 µM [inhibitor, single point]",
CNC(=O)N1CCC(c2nc(CCOc3ccc(F)cc3)no2)C1 (stereo unspecified),inactive,
Cc1cc(CNC(=O)c2cc(C(C)C)nn2C)c2[nH]c(C)c(C)c2c1,"inconclusive: 2.82 µM [inhibitor, partial curve, poor fit]",
C#CCNC(=O)CC[C@@H]1CNC(=O)[C@@H]2C[C@H](NC(=O)c3ccco3)CN12,inactive,
Cc1noc(C)c1C(=O)N1CCC2(CC1)CC(NC(=O)NC(C)C)c1ccccc12 (stereo unspecified),inactive,
CCC(C)NC(=O)Cn1c(-c2cccs2)cc2cc(Cl)ccc21 (stereo unspecified),inactive,
COc1cc(C(=O)NC[C@@H]2CC[C@H]3C[C@@H]2C3(C)C)nc2ccccc12,"inconclusive: 31.6 µM [inhibitor, single point]",
COCCn1c2c(c(=O)n1-c1ccccc1)CCN(C(=O)Cc1ccc3c(c1)OCO3)C2,"inconclusive: 10 µM [inhibitor, single point]",
O=C1NCc2ccccc2CC12CCCCN2Cc1ccnc2ccccc12 (stereo unspecified),active: 8.91 µM,
CC#CCn1cc2c3c(cccc31)[C@H](CC(C)C)N[C@H](C(=O)NCc1ccccc1)C2,"inconclusive: 31.6 µM [inhibitor, single point]",
Cc1cc(C)n(CCCC(=O)N2C[C@H](CO)C[C@H](CN(C)C)C2)n1,inactive,
Cc1cc(C)cc(Nc2cc(C)nc3nc(-c4ccco4)nn23)c1,"inconclusive: 11.2 µM [inhibitor, partial curve]",
